Consider five molecules from patent US20210269542A1 (POTENZA THERAPEUTICS, published 2021).

Where two headings read alike, the source gives them in different places.

For assay [1], the target named is T1, human GITR expressed on cells (human, UniProt Q9Y5U5 26-241).
T1 sequence: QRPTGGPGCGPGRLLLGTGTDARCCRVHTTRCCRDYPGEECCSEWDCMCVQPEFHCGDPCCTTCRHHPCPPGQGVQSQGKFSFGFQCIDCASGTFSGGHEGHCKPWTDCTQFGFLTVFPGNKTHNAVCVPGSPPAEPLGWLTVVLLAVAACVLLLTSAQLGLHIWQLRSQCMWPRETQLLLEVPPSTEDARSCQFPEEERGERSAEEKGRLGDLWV
Briefly: cell-based or functional assay.

Assay [2] addresses T2, cyno GITR-Fc (cynomolgus monkey).
T2 construct: also called cGITR; cynomolgus GITR
T2 chain: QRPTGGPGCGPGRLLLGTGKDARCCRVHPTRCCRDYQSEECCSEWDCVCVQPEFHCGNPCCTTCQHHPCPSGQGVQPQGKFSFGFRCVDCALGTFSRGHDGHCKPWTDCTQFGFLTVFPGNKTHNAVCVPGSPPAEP
Briefly: BLI Octet RED384, ABP on AHQ sensor, 100 nM antigen, single concentration.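 Note: association and dissociation each tracked over 180 s, with dissociation run in antigen-free buffer.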

Assay [3] has as its target T3, human GITR-Fc (human, UniProt Q9Y5U5 26-162).
T3 construct: also called recombinant hGITR; wild type human GITR-Fc
T3 sequence: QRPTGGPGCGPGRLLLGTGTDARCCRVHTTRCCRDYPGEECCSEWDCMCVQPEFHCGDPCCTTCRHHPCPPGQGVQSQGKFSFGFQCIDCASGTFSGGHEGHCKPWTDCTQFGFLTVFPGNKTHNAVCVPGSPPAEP
Described as above.

The target in assay [4] is T1, human GITR expressed on cells. The assay can be described thus: cell-based or functional assay. The source holds these as a separate data set.
Assay [5] deals with T2, cyno GITR-Fc. The assay can be described thus: BLI Octet, ABP on AHC sensor, antigen 50-0.78 nM, multi-concentration, n = 3.
The target of assay [6] is T3, human GITR-Fc. The assay is described as above.
The target in assay [7] is T4, human GITR T43R-Fc (human, UniProt Q9Y5U5 26-162).
T4 construct: also called hGITR-T43R; Human GITR-Fc T43R
T4 chain: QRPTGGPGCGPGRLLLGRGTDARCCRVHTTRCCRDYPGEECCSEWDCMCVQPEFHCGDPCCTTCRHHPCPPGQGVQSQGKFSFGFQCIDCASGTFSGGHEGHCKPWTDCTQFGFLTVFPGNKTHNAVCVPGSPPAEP
The assay can be described thus: BLI Octet, ABP on AHC sensor, antigen 50-0.78 nM, multi-concentration, n = 1.

Assay [8] concerns the target T5, cynomolgus monkey GITR expressed on HT1080 cells (cynomolgus monkey).
T5 chain: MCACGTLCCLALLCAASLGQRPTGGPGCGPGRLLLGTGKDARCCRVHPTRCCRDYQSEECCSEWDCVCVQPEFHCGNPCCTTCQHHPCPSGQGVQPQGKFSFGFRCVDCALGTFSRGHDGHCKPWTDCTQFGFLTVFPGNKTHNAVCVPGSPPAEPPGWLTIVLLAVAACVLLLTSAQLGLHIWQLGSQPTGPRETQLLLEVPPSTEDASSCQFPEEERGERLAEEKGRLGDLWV
Briefly: cell-based or functional assay.

The target in assay [9] is T1, human GITR expressed on cells. Briefly: cell-based or functional assay. This is another data set of the same source.
In assay [10] the target is T2, cyno GITR-Fc. Briefly: BLI Octet, ABP on AHC sensor, 25 nM antigen, single concentration.
Assay [11] has as its target T3, human GITR-Fc. Described as above.
Assay [12] deals with T4, human GITR T43R-Fc. The assay is described as above.
The next assay addresses T6, mouse GITR-Fc (mouse, UniProt O35714 20-153).
T6 construct: also called mGITR
T6 sequence: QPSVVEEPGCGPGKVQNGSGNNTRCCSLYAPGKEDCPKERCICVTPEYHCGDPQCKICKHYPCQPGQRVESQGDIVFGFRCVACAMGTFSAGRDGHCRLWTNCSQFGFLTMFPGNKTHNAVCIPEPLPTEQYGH
The description is as above.

B1: ABP9 (antibody, human IgG4 S228P, kappa)
heavy: QLQLQESGPGLVKPSETLSLTCTVSGGSISSSSYAWGWIRQPPGKGLEWIGSIYYSGSTYYNPSLKSRVTISVDTSKNQFSLKLSSVTAADTAVYYCARDSGRGYGDYGGHHAFDIWGQGTMVTVSSASTKGPSVFPLAPSSKSTSGGTAALGCLVKDYFPEPVTVSWNSGALTSGVHTFPAVLQSSGLYSLSSVVTVPSSSLGTQTYICNVNHKPSNTKVDKRVEPKSCGGGGSQLQLQESGPGLVKPSETLSLTCTVSGGSISSSSYAWGWIRQPPGKGLEWIGSIYYSGSTYYNPSLKSRVTISVDTSKNQFSLKLSSVTAADTAVYYCARDSGRGYGDYGGHHAFDIWGQGTMVTVSSASTKGPSVFPLAPCSRSTSESTAALGCLVKDYFPEPVTVSWNSGALTSGVHTFPAVLQSSGLYSLSSVVTVPSSSLGTKTYTCNVDHKPSNTKVDKRV[human IgG4 Fc with S228P (EU numbers) left out]
light: [about 100 residues left out][about 120 residues left out]
For the molecule B1, the “Average EC50 in Human HT1080 (IL-8 induction)” value (from here on “Average EC50 in Human HT1080”) in assay [1] was determined as 0.18 nM.

B2: ABP24 (antibody, human IgG4 S228P, kappa)
heavy: QVQLQESGPGLVKPSQTLSLTCTVSGGSISSGGAVWSWIRQHPGKGLEWIGGIAYSGSTYYNPSLKSRVTISVDTSKNQFSLKLSSVTAADTAVYYCARDSVRGYGDYGGHHAFDIWGQGTMVTVSSASTKGPSVFPLAPSSKSTSGGTAALGCLVKDYFPEPVTVSWNSGALTSGVHTFPAVLQSSGLYSLSSVVTVPSSSLGTQTYICNVNHKPSNTKVDKRVEPKSCGGGGSQVQLQESGPGLVKPSQTLSLTCTVSGGSISSGGAVWSWIRQHPGKGLEWIGGIAYSGSTYYNPSLKSRVTISVDTSKNQFSLKLSSVTAADTAVYYCARDSVRGYGDYGGHHAFDIWGQGTMVTVSSASTKGPSVFPLAPCSRSTSESTAALGCLVKDYFPEPVTVSWNSGALTSGVHTFPAVLQSSGLYSLSSVVTVPSSSLGTKTYTCNVDHKPSNTKVDKRV[human IgG4 Fc with S228P (EU numbers) left out]
light: [about 100 residues left out][about 120 residues left out]
notes: TM format, N-terminal Fab: VH + IgG1 CH1 + GGGGS + VH + IgG4 S228P
In the case of B2, in assay [1], the “Average EC50 in Human HT1080” value came out at 0.17 nM. Moreover, the binding result with cyno GITR-Fc [2] is given as “no binding (tested: 100 nM)”. For the same molecule, the Kd in the assay with human GITR-Fc [3] is 6.6 nM.

B3: ABP7 (antibody, human IgG4 S228P, kappa)
heavy: QVQLQESGPGLVKPSETLSLTCAVSGYSISSEYMWGWIRQPPGKGLEWIGLIYHSGKTYYNPSLKSRVTISVDTSKNQFSLKLSSVTAADTAVYYCAREADRGYGDYGGHHAFDIWGQGTMVTVSSASTKGPSVFPLAPSSKSTSGGTAALGCLVKDYFPEPVTVSWNSGALTSGVHTFPAVLQSSGLYSLSSVVTVPSSSLGTQTYICNVNHKPSNTKVDKRVEPKSCGGGGSQVQLQESGPGLVKPSETLSLTCAVSGYSISSEYMWGWIRQPPGKGLEWIGLIYHSGKTYYNPSLKSRVTISVDTSKNQFSLKLSSVTAADTAVYYCAREADRGYGDYGGHHAFDIWGQGTMVTVSSASTKGPSVFPLAPCSRSTSESTAALGCLVKDYFPEPVTVSWNSGALTSGVHTFPAVLQSSGLYSLSSVVTVPSSSLGTKTYTCNVDHKPSNTKVDKRV[human IgG4 Fc with S228P (EU numbers) left out]
light: DIQMTQSPSSLSASVGDRVTITCRASQSINSYLNWYQQKPGKAPKLLIYAASSLDSGVPSRFSGSGSGTDFTLTISSLQPEDFATYYCQQEYNTPPTFGGGTKVEIKRTVAAPSVFIFPPSDEQLKSGTASVVCLLNNFYPREAKVQWKVDNALQSGNSQESVTEQDSKDSTYSLSSTLTLSKADYEKHKVYACEVTHQGLSSPVTKSFNRGEC
notes: TM format, N-terminal Fab: VH + IgG1 CH1 + GGGGS + VH + IgG4 S228P; heavy chain with or without C-terminal Lys
For the molecule B3, the “% Activity Compared to GITRL, Jurkat cells expressing human GITR” value in [4] was found to be 108%. In addition, the “EC50, Jurkat cells expressing human GITR” value in assay [4] was found to be 0.2 nM. The Kd with cyno GITR-Fc [5] turned out to be 1.7 nM; with human GITR-Fc [6], 0.45 nM; in the assay with human GITR T43R-Fc [7], 0.7 nM; with cyno GITR-Fc [10], 1.9 nM; in the assay with human GITR-Fc [11], 0.76 nM; with human GITR T43R-Fc [12], 1.1 nM. For the same molecule, the “% Maximum IL-8 Induction Relative to GITRL in cynomolgus HT1080” value in [8] worked out at 95%. In addition, the “Average EC50 in cynomolgus HT1080 (IL-8 induction)” value in assay [8] is 0.128 nM. Moreover, in assay [9], the “% Maximum IL-8 Induction Relative to GITRL in human HT1080” value was 124%. Further, the “Average EC50 in Human HT1080” value in assay [9] is 0.217 nM. Also, the binding result in the assay with mouse GITR-Fc is on record as “no binding (tested: 25 nM)”.

B4: ABP23 (antibody, human IgG4 S228P, kappa)
heavy: QVQLQESGPGLVKPSETLSLTCAVSGYSISSEYMWGWIRQPPGKGLEWIGLIYHSGKTYYNPSLKSRVTISVDTSKNQFSLKLSSVTAADTAVYYCARDSGRGYGDYGGHHAFDIWGQGTMVTVSSASTKGPSVFPLAPSSKSTSGGTAALGCLVKDYFPEPVTVSWNSGALTSGVHTFPAVLQSSGLYSLSSVVTVPSSSLGTQTYICNVNHKPSNTKVDKRVEPKSCGGGGSQVQLQESGPGLVKPSETLSLTCAVSGYSISSEYMWGWIRQPPGKGLEWIGLIYHSGKTYYNPSLKSRVTISVDTSKNQFSLKLSSVTAADTAVYYCARDSGRGYGDYGGHHAFDIWGQGTMVTVSSASTKGPSVFPLAPCSRSTSESTAALGCLVKDYFPEPVTVSWNSGALTSGVHTFPAVLQSSGLYSLSSVVTVPSSSLGTKTYTCNVDHKPSNTKVDKRV[human IgG4 Fc with S228P (EU numbers) left out]
light: [about 100 residues left out][about 120 residues left out]
notes: as for B2
For the molecule B4, the “Average EC50 in Human HT1080” value in assay [1] came to 0.3 nM. In the assay with cyno GITR-Fc [2], the binding result is “no binding (tested: 100 nM)”. The molecule further returned a Kd with human GITR-Fc [3] of 3.7 nM.

B5: ABP8 (antibody, human IgG4 S228P, kappa)
heavy: QVQLQESGPGLVKPSETLSLTCAVSGYSISSEYMWGWIRQPPGKGLEWIGLIYHSGKTYYNPSLKSRVTISVDTSKNQFSLKLSSVTAADTAVYYCAREADRGYGDYGGHHAFDIWGQGTMVTVSSASTKGPSVFPLAPSSKSTSGGTAALGCLVKDYFPEPVTVSWNSGALTSGVHTFPAVLQSSGLYSLSSVVTVPSSSLGTQTYICNVNHKPSNTKVDKRVEPKSCGGGGSQVQLQESGPGLVKPSETLSLTCAVSGYSISSEYMWGWIRQPPGKGLEWIGLIYHSGKTYYNPSLKSRVTISVDTSKNQFSLKLSSVTAADTAVYYCAREADRGYGDYGGHHAFDIWGQGTMVTVSSASTKGPSVFPLAPCSRSTSESTAALGCLVKDYFPEPVTVSWNSGALTSGVHTFPAVLQSSGLYSLSSVVTVPSSSLGTKTYTCNVDHKPSNTKVDKRV[human IgG4 Fc with S228P (EU numbers) left out]
light: DIQMTQSPSSLSASVGDRVTITCGASQSISTYLNWYQQKPGKAPKLLIYSASSLESGVPSRFSGSGSGTDFTLTISSLQPEDFATYYCQQEYNTPPSFGGGTKVEIKRTVAAPSVFIFPPSDEQLKSGTASVVCLLNNFYPREAKVQWKVDNALQSGNSQESVTEQDSKDSTYSLSSTLTLSKADYEKHKVYACEVTHQGLSSPVTKSFNRGEC
notes: as for B3
As for B5, the “% Activity Compared to GITRL, Jurkat cells expressing human GITR” value in [4] came out at 114%. Further, the “EC50, Jurkat cells expressing human GITR” value in assay [4] was 0.3 nM. The Kd was 0.66 nM with cyno GITR-Fc [5]; 0.52 nM with human GITR-Fc [6]; 0.66 nM with human GITR T43R-Fc [7]; 0.94 nM with cyno GITR-Fc [10]; 0.73 nM with human GITR-Fc [11]; 1.02 nM with human GITR T43R-Fc [12]. Moreover, the “% Maximum IL-8 Induction Relative to GITRL in cynomolgus HT1080” value in [8] came to 89%. The “Average EC50 in cynomolgus HT1080 (IL-8 induction)” value in [8] was 0.201 nM. Further, the “% Maximum IL-8 Induction Relative to GITRL in human HT1080” value in [9] came out at 100%. In assay [9], the “Average EC50 in Human HT1080” value came out at 0.255 nM. Besides, in the assay with mouse GITR-Fc, the binding result is on record as “no binding (tested: 25 nM)”.
